# Reference: PMC5700166
# The entries are a selection whose mix differs from that of the whole data set. The list includes weakly bound sequences.
# Molecular target: T1, GST-Ap-NF-kB RHD (UniProt A0A913YAJ5)
# T1 sequence: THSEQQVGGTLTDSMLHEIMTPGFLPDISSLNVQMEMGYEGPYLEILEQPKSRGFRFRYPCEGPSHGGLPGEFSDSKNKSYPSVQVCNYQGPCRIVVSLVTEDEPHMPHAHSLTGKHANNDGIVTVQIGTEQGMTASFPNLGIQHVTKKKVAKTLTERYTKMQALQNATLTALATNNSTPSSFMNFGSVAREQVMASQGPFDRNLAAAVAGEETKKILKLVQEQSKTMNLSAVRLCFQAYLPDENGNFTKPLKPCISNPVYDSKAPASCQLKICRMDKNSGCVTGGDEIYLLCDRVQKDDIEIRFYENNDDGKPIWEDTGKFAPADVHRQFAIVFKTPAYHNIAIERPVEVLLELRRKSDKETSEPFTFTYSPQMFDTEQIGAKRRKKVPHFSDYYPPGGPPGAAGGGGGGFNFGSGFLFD
# Experiment: protein-binding microarray (PBM)
# Conditions: PBM: ~300 nM protein, 6 mM HEPES pH 7.8, 80 mM KCl, 0.5 mM EDTA, 0.5 mM EGTA, 6% glycerol, 35 ng/ul poly-dIdC, 1% milk, 1 h, room temperature; Ap Aiptasia and Nv Nematostella (sea anemones) / Co Capsaspora / Aq Amphimedon (sponge) / Dm Drosophila / Hu human; RHD is the Rel homology domain; high values mean tight binding; most listed sequences are background and not binding sites; double strand, one strand shown
row,Sequence,binding signal
1,CCGATTAACATCAGGAAATGGGATGATGTTAATCGGGTCTTGATTCGCTTGACGCTGCTG,1.33 z-score
2,CCGATTAACATCATCGCGCGACATGATGTTAATCGGGTCTTGATTCGCTTGACGCTGCTG,-0.197 z-score
3,CCGATTAACATCATCATCTCCATTGATGTTAATCGGGTCTTGATTCGCTTGACGCTGCTG,-0.0168 z-score
4,CCGATTAACATCAATCCTACAGGTGATGTTAATCGGGTCTTGATTCGCTTGACGCTGCTG,-0.249 z-score
5,CCGATTAACATCAAAATTCGTCATGATGTTAATCGGGTCTTGATTCGCTTGACGCTGCTG,-0.356 z-score
6,CCGATTAACATCACAGCGAATCCTGATGTTAATCGGGTCTTGATTCGCTTGACGCTGCTG,-0.363 z-score
7,CCGATTAACATCAGGAAATTTGATGATGTTAATCGGGTCTTGATTCGCTTGACGCTGCTG,0.00155 z-score
8,CCGATTAACATCAGCACCCTCCATGATGTTAATCGGGTCTTGATTCGCTTGACGCTGCTG,0.44 z-score
9,CCGATTAACATCATATTCGTAGCTGATGTTAATCGGGTCTTGATTCGCTTGACGCTGCTG,-0.599 z-score
10,CCGATTAACATCAGTTGCTCTCATGATGTTAATCGGGTCTTGATTCGCTTGACGCTGCTG,-0.232 z-score
11,CCGATTAACATCAAATGCAGTTTTGATGTTAATCGGGTCTTGATTCGCTTGACGCTGCTG,-1.79 z-score
12,CCGATTAACATCACGCCGTCGGATGATGTTAATCGGGTCTTGATTCGCTTGACGCTGCTG,-0.427 z-score
13,CCGATTAACATCACCATCTGACCTGATGTTAATCGGGTCTTGATTCGCTTGACGCTGCTG,-0.036 z-score
14,CCGATTAACATCATGCCGGTATATGATGTTAATCGGGTCTTGATTCGCTTGACGCTGCTG,-0.452 z-score
15,CCGATTAACATCATAAAAGTTCTTGATGTTAATCGGGTCTTGATTCGCTTGACGCTGCTG,-0.582 z-score
16,CCGATTAACATCATTGCCTGGTGTGATGTTAATCGGGTCTTGATTCGCTTGACGCTGCTG,0.448 z-score
17,CCGATTAACATCAGAAAATCCGCTGATGTTAATCGGGTCTTGATTCGCTTGACGCTGCTG,-0.00769 z-score
18,CCGATTAACATCAGACTATGCGGTGATGTTAATCGGGTCTTGATTCGCTTGACGCTGCTG,0.192 z-score
19,CCGATTAACATCAGCGAAATTCCTGATGTTAATCGGGTCTTGATTCGCTTGACGCTGCTG,-0.206 z-score
20,CCGATTAACATCATAGGAATGATTGATGTTAATCGGGTCTTGATTCGCTTGACGCTGCTG,-0.478 z-score

row,Sequence,binding signal
1,CCGATTAACATCAGATTCTCATCTGATGTTAATCGGGTCTTGATTCGCTTGACGCTGCTG,-1.04 z-score
2,CCGATTAACATCACGATAGGCCGTGATGTTAATCGGGTCTTGATTCGCTTGACGCTGCTG,-0.962 z-score
3,CCGATTAACATCAATGGACCGTTTGATGTTAATCGGGTCTTGATTCGCTTGACGCTGCTG,-0.402 z-score
4,CCGATTAACATCACAGAGTTTCCTGATGTTAATCGGGTCTTGATTCGCTTGACGCTGCTG,-0.451 z-score
5,CCGATTAACATCACAGGAATTTCTGATGTTAATCGGGTCTTGATTCGCTTGACGCTGCTG,-0.0693 z-score
6,CCGATTAACATCAATCGCCTCTCTGATGTTAATCGGGTCTTGATTCGCTTGACGCTGCTG,-0.248 z-score
7,CCGATTAACATCACCGTTCCGATTGATGTTAATCGGGTCTTGATTCGCTTGACGCTGCTG,-0.282 z-score
8,CCGATTAACATCAGCTTCGAGTCTGATGTTAATCGGGTCTTGATTCGCTTGACGCTGCTG,-0.336 z-score
9,CCGATTAACATCAGACGCTATAATGATGTTAATCGGGTCTTGATTCGCTTGACGCTGCTG,-0.00202 z-score
10,CCGATTAACATCATTACGCCACGTGATGTTAATCGGGTCTTGATTCGCTTGACGCTGCTG,-0.234 z-score
11,CCGATTAACATCAGGTTCATACCTGATGTTAATCGGGTCTTGATTCGCTTGACGCTGCTG,-0.998 z-score
12,CCGATTAACATCAAGTATGTGAATGATGTTAATCGGGTCTTGATTCGCTTGACGCTGCTG,-0.387 z-score
13,CCGATTAACATCAATGAATTCGATGATGTTAATCGGGTCTTGATTCGCTTGACGCTGCTG,-0.59 z-score
14,CCGATTAACATCAGGCAGTTCCATGATGTTAATCGGGTCTTGATTCGCTTGACGCTGCTG,-0.515 z-score
15,CCGATTAACATCAGGCCCGTTTGTGATGTTAATCGGGTCTTGATTCGCTTGACGCTGCTG,0.474 z-score
16,CCGATTAACATCATTCGACATGTTGATGTTAATCGGGTCTTGATTCGCTTGACGCTGCTG,-0.512 z-score
17,CCGATTAACATCACGGAAAAACCTGATGTTAATCGGGTCTTGATTCGCTTGACGCTGCTG,0.504 z-score
18,CCGATTAACATCATACCTATAGTTGATGTTAATCGGGTCTTGATTCGCTTGACGCTGCTG,-0.232 z-score
19,CCGATTAACATCATAAGGACGTATGATGTTAATCGGGTCTTGATTCGCTTGACGCTGCTG,-0.567 z-score
